The values that follow come from PubChem BioAssay AID1240 (Sanford-Burnham Center for Chemical Genomics, 2008).

Hit rate of the full screen: of about 50,000 compounds, about 800 (1.6%) showed an effect of 50% or more. Some of the results follow.

For this experiment, the target named is Bcl-2-like protein 10 (Homo sapiens) (UniProt Q9HD36). The experiment can be described thus: TR3 peptide-Bcl-B binding displacers, biochemical primary FP assay, phenotype converters (AID 1240).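 Also: 0% = Bcl-B with tracer peptide and DMSO and 100% = tracer peptide lacking Bcl-B.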 To be noted: GST-Bcl-B / FITC-TR3 peptide fluorescence polarization; stronger effect = higher value; compound at 3.75 mg/L.
Chain of UniProt Q9HD36 (Q9HD36 whole entry, looked up): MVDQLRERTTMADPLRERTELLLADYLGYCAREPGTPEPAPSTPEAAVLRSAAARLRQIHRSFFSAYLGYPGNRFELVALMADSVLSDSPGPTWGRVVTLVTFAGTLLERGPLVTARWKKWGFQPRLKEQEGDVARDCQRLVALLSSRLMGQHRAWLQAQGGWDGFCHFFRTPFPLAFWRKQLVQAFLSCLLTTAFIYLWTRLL
As to `O=C(O)c1ccc(N2C(=O)C=CC2=O)cc1Cl`, the displacement is -2%. Next, `O=C(COc1ccc2ccccc2c1)NCCCc1ccccc1`: 37.2%; `O=C(/C=C/c1ccc2c(c1)OCO2)NCCSCc1cccc(Cl)c1`: 27.3%; `CC(=O)c1cc2ccc([N+](=O)[O-])cc2oc1=O`: 9.6%. Next, `CCOc1cccc(/C=N/NC(=O)CSc2nc3ccccc3n2CC)c1O`: -8.8%; `CCN(CC)S(=O)C12CC3CC(CC(C3)C1)C2` (configuration not stated): -6%; `O=C(CSc1nnc(-c2ccco2)n1-c1ccccc1)NCc1ccccc1`: -0.6%. For `COc1ccc(C(=O)NC2=NCCS2)c(OC)c1`, the displacement was determined as 4.5%. As to `CCc1nnc(NS(=O)(=O)c2ccc(NS(=O)(=O)c3ccc(NC(C)=O)cc3)cc2)s1`, the displacement was -6.5%. Take `COc1ccc(S(=O)(=O)Oc2ccc3ccccc3c2)cc1`: the displacement is 40.9%. For the compound `C=CCN1C(=O)NC(=O)/C(=C\c2ccc(OCc3ccc(Cl)cc3)c(OC)c2)C1=O`, the displacement amounted to 9.5%. Next, `CCOc1cc(C=C2C(=O)NC(=S)NC2=O)ccc1OCc1ccccc1F`: 8.8%; `Cc1ccc(-n2ccc(N)c(C#N)c2=O)cc1`: 3.3%.

`Cc1ccccc1C(=O)Nc1ccc(-c2cnc(-c3ccc(NC(=O)c4ccccc4C)cc3)nc2)cc1`: the displacement came out at 11.6%.

As to `O=C(Nc1ccc(-c2ccc(Cl)cc2)cc1)C1CC1`, the displacement was determined as 4.5%.

Turning to `COC(=O)/C(C#N)=C/c1ccc(-c2ccc(S(N)(=O)=O)cc2)o1`, the displacement was -46.6%. For `CCOC(=O)C1=C(N)Oc2cc(O)ccc2C1c1cccnc1` (configuration not stated) the value was -8%. Next, `COC(=O)c1ccc(NC(=O)COc2ccc3ccccc3c2)cc1`: 7.3%; `CCN1C(=O)CSC1=NC(C)Cc1ccccc1` (configuration not stated): -3.5%. As for `COc1ccc(OCCNC(=O)Nc2ccc(Br)cc2)cc1`, the displacement was determined as 39.9%. For `CCCNC(=O)n1ccc(C(=O)N2CCOCC2)n1` the value was -4%; for `Cc1cc(=O)n2[nH]c(-c3cccc(Cl)c3)cc2n1`, 3.1%. Next, `C=CCNS(=O)(=O)c1ccc(C)c([N+](=O)[O-])c1`: -12.8%; `CCCCn1c(/N=C/c2ccc(C)cc2O)nc2ccccc21`: 0.4%; `O=C1NC(=O)C(=Cc2cc(Br)ccc2OCc2ccc(Cl)cc2Cl)C(=O)N1`: 13.2%. For `O=C(Nc1ccccc1C(=O)N1CCCCC1)c1cccnc1` the value was 14.6%; for `O=C(CCc1ccccc1)Nc1ccccc1Br`, 8.5%; for `COc1ccc(OC)c(NC(=O)c2ccc(I)cc2)c1`, 10.3%.

As for `Cc1cc(I)ccc1NC(=O)c1ccc([N+](=O)[O-])c(C)c1`, the displacement was -5.6%. For `CCc1ccc(OCC(=O)Nc2ccc3ccccc3c2)cc1` the value was 11.4%; for `COc1ccc(CC(=O)c2ccc(C(=O)Cc3ccc(OC)c(OC)c3)cc2)cc1OC`, 18.6%; for `CCOc1ccc(N2C(=O)CC(NCCNc3ccc([N+](=O)[O-])cn3)C2=O)cc1` (configuration not stated), 0.1%.
